Reference: patent US20130231277A1 (NEW YORK UNIVERSITY, published 2013)

T1: 1:1 binary complex of FGFR4 ligand-binding domain and βKlotho ectodomain (human; murine, UniProt P22455 144-355; Q99N32 53-995)
T1 construct: also called FGFR4-βKlotho complex; not shown: C-terminal FLAG tag
T1 sequence 1: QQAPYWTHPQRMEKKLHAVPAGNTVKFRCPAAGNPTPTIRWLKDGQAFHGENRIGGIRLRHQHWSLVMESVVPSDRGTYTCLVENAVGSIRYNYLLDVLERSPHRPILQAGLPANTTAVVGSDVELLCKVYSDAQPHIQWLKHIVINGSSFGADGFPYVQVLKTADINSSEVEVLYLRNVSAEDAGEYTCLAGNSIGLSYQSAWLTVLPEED
T1 sequence 2: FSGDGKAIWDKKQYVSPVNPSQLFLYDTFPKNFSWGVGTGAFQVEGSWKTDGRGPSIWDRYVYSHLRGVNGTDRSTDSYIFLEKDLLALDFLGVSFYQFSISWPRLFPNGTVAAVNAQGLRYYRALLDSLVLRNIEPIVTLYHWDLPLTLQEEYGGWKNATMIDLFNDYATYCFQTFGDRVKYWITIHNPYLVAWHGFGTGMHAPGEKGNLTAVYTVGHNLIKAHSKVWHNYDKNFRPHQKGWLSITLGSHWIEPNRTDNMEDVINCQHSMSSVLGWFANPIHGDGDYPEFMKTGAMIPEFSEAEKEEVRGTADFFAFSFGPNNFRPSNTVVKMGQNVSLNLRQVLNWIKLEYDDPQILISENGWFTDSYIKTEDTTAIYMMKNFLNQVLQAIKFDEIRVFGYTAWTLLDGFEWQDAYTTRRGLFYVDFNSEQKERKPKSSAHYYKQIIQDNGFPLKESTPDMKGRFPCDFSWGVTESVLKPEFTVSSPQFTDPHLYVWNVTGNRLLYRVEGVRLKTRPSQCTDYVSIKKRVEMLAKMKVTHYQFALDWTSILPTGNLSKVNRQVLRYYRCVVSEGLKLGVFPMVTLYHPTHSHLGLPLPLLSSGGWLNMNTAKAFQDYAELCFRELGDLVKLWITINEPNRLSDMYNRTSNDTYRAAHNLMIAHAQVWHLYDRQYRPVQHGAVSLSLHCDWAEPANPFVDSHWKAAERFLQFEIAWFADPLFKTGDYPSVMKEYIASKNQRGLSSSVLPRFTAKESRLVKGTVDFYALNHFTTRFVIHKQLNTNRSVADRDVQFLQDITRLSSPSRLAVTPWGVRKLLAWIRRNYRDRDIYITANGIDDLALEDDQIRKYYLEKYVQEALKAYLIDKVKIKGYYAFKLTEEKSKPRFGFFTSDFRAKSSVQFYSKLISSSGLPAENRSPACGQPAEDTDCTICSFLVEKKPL

T2: ectodomain of murine αKlotho (A35 to K982 of SEQ ID NO: 231) with a C-terminal FLAG tag (murine, UniProt O35082 35-982)
T2 construct: Purified from culture media of a HEK293 cell line; also called αKlotho ectodomain; not shown: C-terminal FLAG tag
T2 sequence: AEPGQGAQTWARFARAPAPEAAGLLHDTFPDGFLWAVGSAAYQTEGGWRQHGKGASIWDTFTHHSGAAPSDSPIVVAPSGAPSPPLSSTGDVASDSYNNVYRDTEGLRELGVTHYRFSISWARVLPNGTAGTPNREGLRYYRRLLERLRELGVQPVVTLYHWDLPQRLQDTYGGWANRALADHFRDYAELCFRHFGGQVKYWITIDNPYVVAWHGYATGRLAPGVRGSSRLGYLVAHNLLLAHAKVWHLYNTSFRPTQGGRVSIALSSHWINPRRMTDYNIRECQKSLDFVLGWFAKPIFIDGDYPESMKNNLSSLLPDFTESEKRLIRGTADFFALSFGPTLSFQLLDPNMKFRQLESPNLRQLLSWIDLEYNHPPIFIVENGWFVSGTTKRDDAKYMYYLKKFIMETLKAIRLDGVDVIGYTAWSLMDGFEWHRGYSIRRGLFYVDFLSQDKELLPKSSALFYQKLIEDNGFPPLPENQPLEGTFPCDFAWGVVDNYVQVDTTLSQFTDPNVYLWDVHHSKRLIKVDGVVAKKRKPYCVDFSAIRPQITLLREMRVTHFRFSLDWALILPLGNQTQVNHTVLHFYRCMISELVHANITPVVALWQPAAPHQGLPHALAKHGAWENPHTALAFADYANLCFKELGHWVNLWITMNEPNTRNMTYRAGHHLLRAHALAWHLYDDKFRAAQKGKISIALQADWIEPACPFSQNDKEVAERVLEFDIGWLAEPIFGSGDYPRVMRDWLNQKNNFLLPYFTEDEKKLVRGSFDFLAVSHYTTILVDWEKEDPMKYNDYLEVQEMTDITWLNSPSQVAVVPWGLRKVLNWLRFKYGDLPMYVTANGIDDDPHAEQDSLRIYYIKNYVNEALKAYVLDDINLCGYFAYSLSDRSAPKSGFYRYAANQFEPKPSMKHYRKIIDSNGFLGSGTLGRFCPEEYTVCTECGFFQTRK

T3: ectodomain of murine βKlotho (F53 to L995 of SEQ ID NO: 218) with a C-terminal FLAG tag (murine, UniProt Q99N32 53-995)
T3 construct: Expressed in HEK293 cells and purified from culture media; also called βKlotho ectodomain; not shown: C-terminal FLAG tag
T3 sequence: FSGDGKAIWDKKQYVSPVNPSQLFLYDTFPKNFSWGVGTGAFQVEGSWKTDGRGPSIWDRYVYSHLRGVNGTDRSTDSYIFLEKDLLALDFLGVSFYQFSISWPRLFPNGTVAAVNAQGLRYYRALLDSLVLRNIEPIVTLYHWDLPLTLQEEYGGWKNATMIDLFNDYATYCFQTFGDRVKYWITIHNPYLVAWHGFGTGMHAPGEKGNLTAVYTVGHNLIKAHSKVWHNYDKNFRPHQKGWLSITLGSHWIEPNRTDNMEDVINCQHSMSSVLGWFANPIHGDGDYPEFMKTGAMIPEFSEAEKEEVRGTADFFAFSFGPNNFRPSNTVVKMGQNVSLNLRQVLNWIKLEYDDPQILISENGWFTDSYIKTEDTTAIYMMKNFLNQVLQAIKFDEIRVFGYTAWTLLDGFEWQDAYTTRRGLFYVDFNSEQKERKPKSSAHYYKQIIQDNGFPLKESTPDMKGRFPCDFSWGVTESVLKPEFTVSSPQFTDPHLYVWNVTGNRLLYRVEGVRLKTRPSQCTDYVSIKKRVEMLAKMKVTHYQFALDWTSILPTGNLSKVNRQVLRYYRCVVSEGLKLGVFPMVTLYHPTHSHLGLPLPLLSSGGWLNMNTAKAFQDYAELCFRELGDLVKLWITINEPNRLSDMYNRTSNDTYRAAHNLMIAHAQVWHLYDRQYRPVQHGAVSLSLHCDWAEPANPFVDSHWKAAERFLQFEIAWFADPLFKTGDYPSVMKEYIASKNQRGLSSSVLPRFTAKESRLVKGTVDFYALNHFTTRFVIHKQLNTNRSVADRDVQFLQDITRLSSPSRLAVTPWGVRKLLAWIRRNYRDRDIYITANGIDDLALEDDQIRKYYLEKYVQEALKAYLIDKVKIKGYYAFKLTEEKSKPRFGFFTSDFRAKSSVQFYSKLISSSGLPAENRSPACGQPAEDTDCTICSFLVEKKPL


Key:
[1] = molecular target: T1, 1:1 binary complex of FGFR4 …; test: size-exclusion chromatography (FIGS. 2A, 2B)
Protocol: Size-exclusion chromatography experiments were performed on a HiLoad™ 16/60 Superdex™ 200 prep grade column (GE Healthcare) mounted on an ÄKTApurifier (GE Healthcare). […] Sample injection volume was 0.9 to 2.0 ml, and the flow rate was 1.0 ml min⁻¹. Protein retention times were determined by absorbance at 280 nm. The column was calibrated with ferritin (440 kDa), immunoglobulin G (150 kDa), albumin (69.3 kDa), ovalbumin (44.3 kDa), carbonic anhydrase (28.8 kDa), and ribonuclease A (13.7 kDa). The void volume was determined using blue dextran 2,000, and the column volume was measured with acetone. To examine ternary complex formation between FGF21, FGFR1c, and βKlotho, 2.72 μmol of the 1:1 binary complex of FGFR1c ligand-binding domain and βKlotho ectodomain were mixed with 9.25 μmol of FGF21, and the mixture was applied to the size-exclusion column. The retention time of the FGFR1c-βKlotho complex alone served as a reference point. To examine ternary complex formation between FGF19, FGFR4, and βKlotho, 2.46 μmol of the 1:1 binary complex of FGFR4 ligand-binding domain and βKlotho ectodomain were mixed with 8.51 μmol of FGF19, and the mixture was applied to the size-exclusion column. The retention time of the FGFR4-βKlotho complex alone served as a reference point. […]

[2] = molecular target: T2, ectodomain of murine αKlotho (A35 to …); test: SPR; FGF19 immobilized, increasing concentrations of αKlotho ectodomain passed over the chip (FIG. 4D)
Protocol: (§1) SPR experiments were performed on a Biacore 2000 instrument (Biacore AB), and all the protein-protein and protein-peptide interactions were studied at 25° C. in HBS-EP buffer (10 mM HEPES-NaOH, pH 7.4, 150 mM NaCl, 3 mM EDTA, 0.005% (v/v) polysorbate 20). Proteins were immobilized by amine coupling on flow channels of research grade CM5 chips (Biacore AB). Proteins were injected over a CM5 chip at a flow rate of 50 μl min⁻¹, and at the end of each protein injection (180 s), HBS-EP buffer (50 μl min⁻¹) was flowed over the chip to monitor dissociation for 180 s. In experiments where βKlotho binding to FGFR was analyzed, the chip surface was then regenerated by injecting 50 μl of 2.0 M NaCl in 10 mM sodium/potassium phosphate, pH 6.5. In experiments where α/βKlotho binding to FGF19/21/23 or binding of the FGFR1c-βKlotho complex to FGF21 was studied, 2.0 M NaCl in 10 mM sodium acetate, pH 4.5 was used for chip regeneration. To control for nonspecific binding in experiments where the ectodomain of αKlotho or βKlotho was immobilized on the chip, β-glucuronidase was coupled to the control flow channel of the chip (˜43-68 fmol/mm²). […] For each protein injection over a chip onto which αKlotho or βKlotho had been immobilized, the nonspecific responses from the β-glucuronidase control flow channel were subtracted from the responses recorded for the α/βKlotho flow channel.

[3] = molecular target: T3, ectodomain of murine βKlotho (F53 to …); test: SPR; FGF19 immobilized, βKlotho ectodomain as analyte (FIG. 4A)
Text: FGF19 was immobilized on a biosensor chip, and increasing concentrations of βKlotho ectodomain were passed over the chip. […] FGF21 was immobilized on a biosensor chip, and increasing concentrations of βKlotho ectodomain were passed over the chip. Note that for any given concentration of βKlotho, the binding response is greater on the FGF19 chip surface than on the FGF21 chip surface. Also note that the FGF19-βKlotho complex dissociates more slowly than the FGF21-βKlotho complex (compare the dissociation phases of the sensorgrams shown in (A) and (B)). […] FGF23 was immobilized on a biosensor chip, and increasing concentrations of βKlotho ectodomain were passed over the chip. […] FGF19 was immobilized on a biosensor chip, and increasing concentrations of αKlotho ectodomain were passed over the chip. […] FGF21 was immobilized on a biosensor chip, and increasing concentrations of αKlotho ectodomain were passed over the chip. […]
SPR experiments were performed on a Biacore 2000 instrument (Biacore AB), and all the protein-protein and protein-peptide interactions were studied at 25° C. in HBS-EP buffer (10 mM HEPES-NaOH, pH 7.4, 150 mM NaCl, 3 mM EDTA, 0.005% (v/v) polysorbate 20). […] In experiments where βKlotho binding to FGFR was analyzed, the chip surface was then regenerated by injecting 50 μl of 2.0 M NaCl in 10 mM sodium/potassium phosphate, pH 6.5.

[4] = molecular target: T3, ectodomain of murine βKlotho (F53 to …); test: SPR; βKlotho ectodomain immobilized, FGFR4 ligand-binding domain as analyte (FIG. 3D)
Protocol: as §1

Binder	binding result [1]	binding result [2]	binding result [3]	binding result [4]
human FGF19, secreted bioactive form ([…] of SEQ ID NO: 1) (ligand) not shown	binds	no binding	binds	
ligand-binding domain of human FGFR4 ([…] of SEQ ID NO: 230) (receptor) not shown				binds
